Experimental data published in PubChem BioAssay AID588855 (National Center for Advancing Translational Sciences (NCATS), 2011).
Values joined by “and” are separate entries in the source; they are usually repeats but may differ in a detail not shown here. Identical values can stand only once. About 5,000 (1.2%) of roughly 410,000 compounds were called active. Inconclusive means that the source gave no clear call. Such entries were picked first, then a sample of the others. Calls follow the shape of the dose curve; as a rule, active = well fitted inhibition curve with a large enough effect; inconclusive = small, poorly fitted or top-dose-only effect; inactive = no such curve, though single readings can be large or run the other way. Potencies of inconclusive entries are doubtful fits and often do not repeat. Some structures have more than one record in an assay (separate samples or runs), and their calls can disagree.

Experiment: qHTS for Inhibitors of TGF-b; also: nearly all actives have a fitted effect of over 65% in size
Conditions: HepG2 CAGA-GFP TGF-b/SMAD3 reporter, GFP fluorescence, 18 h, TGF-beta stimulated, 500 pg/mL final; series mostly up to 46.1 µM
Summary of the method: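 Per well, imaged GFP fluorescence of HEPG2 CAGA-GFP cells gives the signal; cells get compound, then TGF-beta (500 pg/mL final), 18 h at 37 degrees C; %Activity versus -TGF-beta and +DMSO controls.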
Potency is read from the fitted curve at half-maximal effect; tags tell the direction and shape of the fitted curve.

SMILES	Potency
OC(c1cccc(Cl)c1)c1ncc(-c2ccc(Oc3ccccc3)cc2)[nH]1 (stereo not drawn)	active: 17.8 µM
CSc1ccc(CN(C)CC(=O)NCc2ccc(F)cc2)cc1	inconclusive: 35.5 µM [inhibitor, single point]
COc1ccc(NC(=O)CCCSc2nc(-c3ccco3)cc(C(F)(F)F)n2)cc1	inactive
O=C(CCC(=O)c1cccs1)NCc1cccc(C(F)(F)F)c1	inactive
COCCNC(=O)CSc1nc2ccccc2c(=O)n1-c1cccc(OC)c1	inconclusive: 35.5 µM [inhibitor, single point]
Cc1cc(C)c2nc(/N=C(\N)NC(=O)Nc3ccccc3)nc(C)c2c1	inconclusive: 35.5 µM [inhibitor, single point]
Cc1ccc(NC(=O)Nc2nnc(SCC(=O)N3CCC(C)CC3)s2)cc1	inconclusive: 22.4 µM [inhibitor, single point]
CCOC(=O)N1CCN(C(=O)C2CCCN(c3nc4ccc(OCC)cc4s3)C2)CC1 (stereo not drawn)	inactive
CC(=O)CSc1ncnc2scc(-c3ccc(F)cc3)c12	inactive
Cc1cc2nc(C(C)(C)C)c(Cc3ccccc3)n2c(C)c1Br	inconclusive: 20 µM [inhibitor, partial curve, poor fit]
O=[N+]([O-])c1ccc2nc(SCc3cn4cc(Cl)ccc4n3)[nH]c2c1	inconclusive: 35.5 µM [inhibitor, single point]
Cc1ccsc1/C=N/Nc1nc2ccccc2[nH]1	inconclusive: 35.5 µM [inhibitor, single point]
COc1ccc(C(=O)NCCSc2c(C)[nH]c3ccccc23)cc1	inconclusive: 14.1 µM [inhibitor, single point]
CCOC(=O)c1cc(C)nc(Sc2ccc(C)cc2)c1C#N	inactive
COc1ccc(NC(=O)CC2C(=O)N(c3ccc(Cl)cc3)C(=S)N2CCc2ccncc2)cc1 (stereo not drawn)	inconclusive: 31.6 µM [inhibitor, single point]
CN1CCCC(C#CC(O)(c2ccccc2)c2ccccc2)C1 (stereo not drawn)	inactive
Cc1[nH]c2ccccc2c(=O)c1C(=O)/C=C/c1ccccc1	inconclusive: 35.5 µM [inhibitor, single point]
O=c1c2cc3c(nc2ncn1Cc1ccccc1F)CCCC3	inactive
Oc1ccc(-c2cnc3c(Nc4cccc(OC(F)(F)C(F)F)c4)nccn23)cc1	inactive
CCOC(=O)c1cnc2c(ccc3ccccc32)c1Nc1ccc(OC)c(OC)c1	inactive
N=C1c2ccccc2CN1NC(=O)CC12CC3CC(CC(C3)C1)C2	inconclusive: 35.5 µM [inhibitor, single point]
O=C(O)c1cc(O)ccc1NC(=O)c1cccc2ccccc12	inactive
O=C(CN1C(=O)C2C3CCC(C3)C2C1=O)OCC(=O)c1cccc([N+](=O)[O-])c1 (stereo not drawn)	inactive

SMILES	Potency
COc1ccc(CN(CCc2ccccc2)Cc2ccccc2)cc1OC	inconclusive: 12.6 µM [inhibitor, partial curve]
CN1CC(=O)N/C1=N\C(=O)Nc1ccc2c(c1)N(C)C(=O)CS2	inactive
CCN1CCN(c2cc(C)c3cc(NC(=O)/C=C/c4cccc(Cl)c4)ccc3n2)CC1	inactive
Cc1ccccc1NC(=O)CN1C(=O)N/C(=C\c2ccc(N3CCOCC3)c(F)c2)C1=O	inconclusive: 35.5 µM [inhibitor, partial curve, poor fit]
COc1ccccc1CNC(=O)C1CCC(CNS(=O)(=O)c2ccc(F)cc2)CC1 (stereo not drawn)	inactive
COc1ccc(S(=O)(=O)N2CCCC(N(C)CCc3ccccc3)C2)cc1OC (stereo not drawn)	inconclusive: 14.1 µM [inhibitor, partial curve, poor fit]
O=C(NC1CCCC1)c1ccc(CSc2nc3ccncc3n2Cc2ccc(F)cc2)cc1	active: 7.94 µM
COc1ccc(-n2cc(C(=O)NC(C)c3ccccc3)c3ccccc3c2=O)cc1 (stereo not drawn)	inconclusive: 14.1 µM [inhibitor, single point]
CC(C)C[C@H]1CN([C@@H](CC(C)C)CN2CCC[C@@H]2CN2C(=O)C(=O)NC[C@@H]2Cc2ccccc2)C(=O)C(=O)N1CCc1ccccc1	inconclusive: 35.5 µM [inhibitor, single point]
CCOC(=O)c1oc2ccc(CNC3CCCCC3)c(Cl)c2c1C	inconclusive: 35.5 µM [inhibitor, single point]
CC(C)CCNC(=S)Nc1ccc([N+](=O)[O-])cc1	inconclusive: 22.4 µM [inhibitor, single point]
COCCCN1C(=O)c2[nH]nc(-c3cc(C)cc(C)c3O)c2C1c1ccc(O)c(OC)c1 (stereo not drawn)	inactive
Cc1ccc(N2CC(c3nnc(NC(=O)c4ccco4)s3)CC2=O)cc1C (stereo not drawn)	inactive
C[C@@H]1CCC(=O)N(CC[C@H](Sc2ccc(Br)cc2)c2ccccc2)CC1	inconclusive: 35.5 µM [inhibitor, single point] and inconclusive: 22.4 µM [inhibitor, single point]
Fc1ccccc1CNc1cc(Cl)cc(Cl)c1	inconclusive: 7.94 µM [inhibitor, partial curve]
Cc1ccc(CNC(=O)c2ccc(F)c(S(=O)(=O)N3CCOCC3)c2)cc1	inactive
CC(=O)NC(=S)Nc1ccc([N+](=O)[O-])cc1C	inactive
CCOC(=O)N1CCC(=NNc2nc3ccccc3s2)CC1	inconclusive: 22.4 µM [inhibitor, single point]
NC(COCc1ccccc1)c1csc(Nc2ccc(C(F)(F)F)cn2)n1 (stereo not drawn)	inconclusive: 12.6 µM [inhibitor, partial curve, poor fit]
CCOC(=O)CNC(=O)c1cn(CC(C)C)c(=O)c2cc(OC)c(OC)cc12	inconclusive: 35.5 µM [inhibitor, single point]
Cc1ccc(NC(=O)CN2C=NS(=O)(=O)c3ccccc32)c(C)c1	inconclusive: 11.2 µM [inhibitor, single point]
CCN1CCN(CCNC(=O)c2ccc(/C=C3/Sc4ccccc4N(Cc4cccc(Cl)c4)C3=O)cc2)CC1	inconclusive: 20 µM [inhibitor, partial curve, poor fit]
CN(Cc1ccccc1)C(=O)COC(=O)CN1C(=O)c2ccccc2C1=O	inactive

SMILES	Potency
CCOc1ccc(N(CC)S(=O)(=O)N2CCCC(C(=O)NCc3ccc(SC)cc3)C2)cc1 (stereo not drawn)	inconclusive: 12.6 µM [inhibitor, partial curve, poor fit]
CC(C)(C)c1nn(-c2ccccc2)c2[nH]c(=O)c(CNCc3ccc4c(c3)OCO4)cc12	inconclusive: 35.5 µM [inhibitor, single point]
Cc1ccc(N2C(=O)CC(Cn3nc(C)cc3C)C2=O)cc1 (stereo not drawn)	inconclusive: 3.16 µM [inhibitor, full curve, poor fit]
COc1ccc(NC(=O)COc2cccc3c2CCN(Cc2cccnc2)C3=O)c(OC)c1	inconclusive: 25.1 µM [inhibitor, single point]
COc1ccc(NC(=O)CSc2cc(C(=O)c3nccn3C)c3ccccc3n2)cc1	inconclusive: 35.5 µM [inhibitor, single point]
CCOC(=O)c1nn(-c2ccc(F)cc2)cc1O	inactive
Cc1ccc(C)c(CN2C(=O)c3ccccc3S(=O)c3ccc(C(=O)NCCc4ccc(Cl)cc4)cc32)c1 (stereo not drawn)	inconclusive: 2.82 µM [inhibitor, partial curve, poor fit]
O=C(CCl)Nc1ccc(Oc2cnc3ccccc3n2)cc1	inconclusive: 25.1 µM [inhibitor, single point]
Cc1cc(C)n2nc3nc(N4CCCC4)nc(-c4ccccc4)c3c2n1	inconclusive: 15.8 µM [inhibitor, single point]
C[C@H](O)[C@@H]1C(=O)N2CCc3c([nH]c4ccccc34)[C@@H]2C[C@@H]1N(C)C(=O)Nc1cccc2ccccc12	inconclusive: 35.5 µM [inhibitor, single point]
CC(NC(=O)Cn1nc(C(=O)O)c2ccccc2c1=O)C12CC3CC(CC(C3)C1)C2 (stereo not drawn)	inactive
CC(C)CN(C(=O)COC(=O)CNC(=O)c1ccccc1F)c1c(N)n(Cc2ccccc2)c(=O)[nH]c1=O	inactive
Cc1c(NS(C)(=O)=O)cccc1-c1nc2ccccc2s1	inconclusive: 35.5 µM [inhibitor, single point]
COc1ccccc1CN(Cc1nc2ccccc2c(=O)[nH]1)C(=O)Nc1cccc(C)c1	inconclusive: 15.8 µM [inhibitor, single point]
CCOc1ccc(CNC(=O)C(C)n2ccc3cc(S(=O)(=O)N4CCCC4)ccc32)cc1 (stereo not drawn)	inconclusive: 35.5 µM [inhibitor, single point]
Cc1cccc(NC(=O)c2ccc(NCC3CCCO3)c([N+](=O)[O-])c2)n1 (stereo not drawn)	inactive
Cc1cc(Cl)ccc1OCCCC(=O)Nc1cccc(-n2cnnn2)c1	inconclusive: 22.4 µM [inhibitor, partial curve, poor fit]
CN(C)c1ccc(CNC(=O)C2CCN(S(=O)(=O)c3cn(C)cn3)CC2)cc1	inactive
COc1ccc(NC(=O)c2cc(C3CC3)nc3c2c(C)nn3-c2ccc(C)cc2)cc1OC	inconclusive: 8.91 µM [inhibitor, partial curve]
CC(C)N(Cc1nc(COc2ccccc2)no1)Cc1nccn1C	inactive
CC(NC(=O)COC(=O)CCN1C(=O)C2CC=CCC2C1=O)c1ccc(Br)cc1 (stereo not drawn)	inconclusive: 35.5 µM [inhibitor, single point]
CCN(CC)c1ccc(/C=N/NC(=O)CN2CCCc3ccccc32)cc1	inconclusive: 7.08 µM [inhibitor, partial curve]
